The other results are listed elsewhere or left out.
Test system: PfSIP2 AP2 domain 1 (GST-tagged)
Assay: gcPBM binding intensity (ln(normalized median fluorescence intensity)); higher = stronger DNA binding
How it was run: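 Each value is the highest Masliner-normalised natural-log median intensity across replicate spots of either orientation of a probe. The probes were primer-extended double-stranded 36-bp intergenic genomic sequences on an Agilent 4 × 180k array, alongside negative controls, exposed for 1 h to GST-tagged P. falciparum DNA-binding domains expressed in E. coli. Bound protein was picked up with Alexa488 anti-GST antibody and scanned at 488 nm.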

Sequence | gcPBM binding intensity (ln)
AGCCCTTTTTTTTTTTAGAATATTGCATAATTATAT [XGTACX_negctrl_site546] | 7.24
TATATAAATATATCCACACACATACCTATATTAATA [CACACA_site6184] | 7.17
GTATTGTATGGATGGGGTACTATATATATATATTTT [XGTACX_site1694] | 7.58
TTATAATTAAATTTCACACAGTTCATAACATAATTA [CACACA_site5501] | 6.97
TAAGGGAGAGATTTGTATCATAAGCAACTTTCAAAA [CACACA_negctrl_site1436] | 6.82
TTTATATGTTTTAAGTGTACACATATAATGTATTTT [XGTACX_site3069] | 7.09
ACTTTCAACATGAAGTTGCACTTTTTTTTTTTTCTT | 8.11
TAATTAAATAAAAAAAAATATATATATATATATATA [XGTACX_negctrl_site616] | 9.93
TTTTTTAAAAATAACTGTACAGAGGCTGTTAGGATA [XGTACX_site2521] | 7.32
AGACAATATTAATAAGGTACACATATATATTAAAAA [XGTACX_site6709] | 7.08
ATATGTCCATATAGTAAATGTTACATTTTAAAGCGC [XGTACX_negctrl_site168] | 6.84
CATATTTTGTGAAAAAGTACATATATATATATATAT [XGTACX_site6295] | 9.34
AAAATATTTATTTTTTGTACACATAAAAACGCACTT [XGTACX_site4132] | 8.15
ATTCTTAAAAAATAAGTGCAAAATAATTAAATAAAT | 8.44
AGAATGGTTTATAAAGGTACGTAATTTTTAATTTTA [XGTACX_site383] | 6.74
AAACGTATTCTATAAAGTACATTATTATAGTAGACC [XGTACX_site8068] | 7.2
TATTGAATAAAATGCACACGCATGCGTTATTTATTA [CACACA_site3479] | 6.9
TAAAAAAATTATATTTGTACATATTAATATAGCCTT [XGTACX_site4833] | 6.81
TAGTATTAAATATATACACACATATATACCTATAGA [CACACA_site5219] | 6.82
TGAAAAGATAAAAAAAGTACACACACACATATATAT [XGTACX_site6504] | 7.56
AAAAATTCAATAGGACGTACTAAAACATTCATTAAT [XGTACX_site1712] | 6.87
TTTAGTGTTATAAAAAGTACATAATAATTCCTTTTC [XGTACX_site3208] | 7.05
TTATAAATAATGAGAAACATTAAATTTAATCATAAA [CACACA_negctrl_site523] | 6.74

Sequence | gcPBM binding intensity (ln)
TACTATATATATATATATATATATATATATATTTAT [GTGCAC_negctrl_site593] | 7.9
AATATGTACAGACATACACACATATTTATATTTATA [CACACA_site6694] | 7.04
TTATATAAAGAATGTACACACAGAAATGCACAGACA [CACACA_site5288] | 8.26
GCTTATATTAATAAGGTGCTTTTTATTTCGTGTGTA [GTGCAC_site9649] | 7.78
TCATAGTATAAACACACACACACACCCATATATATA [CACACA_site8512] | 7.41
AATTTTCAATAGTATACACACAATTCTATAAATATA [CACACA_site6650] | 7.04
AATGAGAATTTTATTACACACTTTAATATATTTTCA [CACACA_site784] | 6.75
CACGTGAAAATACAAGCATGCAAGCTTTTTTTTTCT [TGCATGCA_site642] | 6.53
AATTTTTTTATAGCACGTACAAAAATACAAAATACA [XGTACX_site1569] | 7.34
ATCATTTATATTTTATGTACATATATAATTATATTT [XGTACX_site2129] | 7.29
AAAAAAATAAATAAATGTACACATATATATATATAT [XGTACX_site4350] | 9.23
TAGAGGAATATAATATGTACATAATATAATGTATAT [XGTACX_site2838] | 7.07
TTATGTCTAATGAAATGTACATGAATAAATTAAAGT [XGTACX_site8138] | 7.59
AGTGAAATTTTAGTCACACAGTTTTATCTTTAAGAA [CACACA_site5202] | 6.54
AATTATATAAGCCACGCATGTGTGCATAAAAATACA [TGCATGCA_site114] | 7.79
AGCCCAAAAAAGTAGACATGCAAAAACTTTACAACT [TGCATGCA_site550] | 7.09
AAAAAAAAAAAGAAGGGTACATATTATATATAATAT [XGTACX_site6204] | 7.09
TATATATAAACATAATGTACATATAATAAGTAATAT [XGTACX_site497] | 7.22
TCTTGATCTTATATATATCTACAATATTTTATACAT [TGCATGCA_negctrl_site569] | 7.12
ATTACAAATATAATATGTACTTAAATATAATTAAAA [XGTACX_site7038] | 6.89
ATTACTAAAACAAAATGTACATATGATTTAAGAAAA [XGTACX_site5992] | 6.83
TTTTTTTTTTAGAGTACACACTTTTTTACATTTATG [CACACA_site5990] | 7.08

Reference: the supplement of paper PMC11417369
